From patent US20090130105A1 (Biogen, published 2009)

Target: T1, human IGF-1R(1-902)-His10 (human, UniProt P08069 31-932)
T1 construct: Bought from R&D Systems (305-GR-050); also called hIGF-1R-His10; hIGF-1R-His
Assay: SPR (Biacore 3000): IGF-1 titrated into 40 nM hIGF-1R-His, mixture injected over immobilized M13-C06
Experimental: Regeneration was achieved by three 10 μL injections of 0.1 M glycine, pH 2.0. 100% hIGF-1R-His binding to each antibody was determined by the signal above the baseline under mass transport-limiting conditions 60 seconds into the injection.

T1 sequence (P08069 other isoform, or with tags, fused parts or gaps): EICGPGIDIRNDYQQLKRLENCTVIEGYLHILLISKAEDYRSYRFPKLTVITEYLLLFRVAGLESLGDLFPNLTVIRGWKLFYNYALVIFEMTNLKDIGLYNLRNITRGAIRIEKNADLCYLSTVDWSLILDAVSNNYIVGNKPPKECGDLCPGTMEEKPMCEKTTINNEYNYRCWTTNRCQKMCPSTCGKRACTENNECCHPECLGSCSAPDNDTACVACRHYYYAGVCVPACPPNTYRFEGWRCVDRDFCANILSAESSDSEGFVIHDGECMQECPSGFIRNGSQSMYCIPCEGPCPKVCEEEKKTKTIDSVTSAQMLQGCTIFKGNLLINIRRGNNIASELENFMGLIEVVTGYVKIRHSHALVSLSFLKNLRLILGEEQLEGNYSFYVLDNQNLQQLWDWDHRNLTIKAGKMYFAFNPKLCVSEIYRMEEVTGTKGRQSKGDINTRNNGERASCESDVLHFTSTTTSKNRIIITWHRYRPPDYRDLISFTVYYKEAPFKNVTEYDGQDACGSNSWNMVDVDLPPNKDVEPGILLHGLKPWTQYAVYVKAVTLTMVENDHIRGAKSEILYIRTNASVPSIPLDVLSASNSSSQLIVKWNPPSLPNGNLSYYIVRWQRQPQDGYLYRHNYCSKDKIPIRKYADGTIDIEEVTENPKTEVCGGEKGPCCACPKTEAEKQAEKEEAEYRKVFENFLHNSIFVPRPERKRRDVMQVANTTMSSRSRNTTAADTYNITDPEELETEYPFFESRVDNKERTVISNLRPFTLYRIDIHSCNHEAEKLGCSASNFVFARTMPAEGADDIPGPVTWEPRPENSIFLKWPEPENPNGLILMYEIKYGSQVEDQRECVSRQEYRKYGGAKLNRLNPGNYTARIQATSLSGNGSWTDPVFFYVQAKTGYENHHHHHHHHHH

B1: human IGF-1 His (ligand)
chain: not shown
- IC50 (read off the curve): ~20 nM
